# Test results taken from PubChem BioAssay AID504706 (National Center for Advancing Translational Sciences (NCATS), 2011).
# Where “and” joins values, the source holds several entries; their conditions need not be identical. Identical values can stand only once. Out of some 320,000 compounds screened, about 200 (0.062%) were called active. Inconclusive results, whose numbers are uncertain, are shown with a selection of clear calls. The call rests on the fitted dose curve; in most records, active means well fitted activation curve with a large enough effect; inconclusive means small, poorly fitted or top-dose-only effect; inactive means no such curve, though single readings can be large or run the other way. Potencies of inconclusive entries are doubtful fits and often do not repeat.
# Assay: qHTS assay for re-activators of p53 using a Luc reporter; further: nearly all actives have a fitted effect of over 45% in size; on activity change, positive = activation: % of control where 0% means no effect
# Details: H1299 p53-A138V BP100-luciferase reporter, luminescence, 24 h; series mostly up to 92.2 µM; activity change, positive = activation: at the top concentration
# Summary of the method: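 H1299 (p53-null), stable ts p53-A138V + BP100-Luc; 1000 cells/well, Opti-MEM/10% FBS; cpd 4 pt, 1:5; 24 h, 37 deg C, 5% CO2; detection reagent 10 min RT; luminescence.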
# Potency means the concentration at half of the fitted maximal effect; tags describe the fitted curve by direction and shape.
Compound,Potency,"activity change, positive = activation"
O=C(NCc1ccc(Cl)cc1)c1cnn2ccccc12,"inconclusive: 3.16 µM [activator, full curve, poor fit]",
N=C(N)SCc1nc2ccccc2c(=O)n1-c1ccccc1,"inconclusive: 15.8 µM [activator, full curve, poor fit] and inconclusive: 56.2 µM [activator, partial curve, poor fit]",
Cc1ccsc1/C=C(/C#N)C(=O)NCc1ccccc1,"inconclusive: 2.82 µM [activator, full curve, poor fit]",
N/C(=N\OC(=O)Nc1ccccc1)c1ncc([N+](=O)[O-])s1,"inconclusive: 17.8 µM [activator, single point]",
CC1CC(C)CN(CCCNC(=O)c2ccc3c(c2)NC(=O)C(N2CCCCC2)S3)C1 (stereo not given),"inconclusive: 31.6 µM [activator, single point]",
COc1ccc(-c2csc(Nc3ccccn3)n2)cc1,"inconclusive: 20 µM [activator, partial curve, poor fit]",
Cc1ccccc1OCC(=O)O/N=C(\N)c1ccncc1,"inconclusive: 10 µM [activator, partial curve, poor fit]",
CCN(CC)CCNCc1ccc(OCc2ccc(Cl)nc2)c(OC)c1,"inconclusive: 50.1 µM [activator, partial curve, poor fit]",
CN(C)c1oc(-c2ccccc2[N+](=O)[O-])nc1C#N,,inactive: 0.136%
CC(=O)Nc1ccc(SCC(=O)c2cc(C)n(CC(F)(F)F)c2C)cc1,"inconclusive: 39.8 µM [activator, partial curve, poor fit]",
Cc1[nH]n(-c2ccccc2)c(=O)c1N=Nc1ccccc1C(=O)O,"inconclusive: 50.1 µM [activator, single point]",
CC(=O)C(C)Oc1ccc2c3c(c(=O)oc2c1)CCCC3 (stereo not given),,inactive: 24.7%
CCn1c(NCc2cccs2)nc2ccccc21,,inactive: 3.88%
CC(=O)c1cccc(NC(=O)CSCc2ccccc2)c1,"inconclusive: 8.91 µM [activator, full curve, poor fit]",
Oc1cc2ccccc2cc1-c1n[nH]c(=S)o1,,inactive: 25.9%
O=C(Nc1ccc(N2CCOCC2)cc1)c1cc2ccccc2o1,"inconclusive: 2.51 µM [activator, partial curve, poor fit]",
CCOC(=O)c1ccc(NC(=O)c2nn(CC)cc2Br)cc1,,inactive: 20.7%
Cc1ccc(Nc2c(-c3ccccn3)nc3ccc(C)cn23)cc1,"inconclusive: 44.7 µM [activator, partial curve, poor fit]",
CCc1c(C)c2ccc(OCC(=O)OC(C)C)c(C)c2oc1=O,,inactive: 2.39%
Cc1ccc(Nc2nc(N)nc(CSc3nnc(-c4ccncc4)o3)n2)cc1,"inconclusive: 20 µM [activator, partial curve, poor fit]",
Cc1ccc(NC(=S)NC(C)CCc2ccccc2)cc1C (stereo not given),,inactive: 9.55%
Clc1ccc(OCc2nc(-c3ccncc3)no2)cc1,"inconclusive: 56.2 µM [activator, single point]",
Clc1cccc2sc(N3CCN(c4ccccc4)CC3)nc12,"inconclusive: 17.8 µM [activator, full curve]",
CC(C)CC(NC(=O)C1CCC(C)CC1)C(=O)Nc1ccc2c(c1)OCCO2 (stereo not given),"inconclusive: 11.2 µM [activator, full curve, poor fit]",

Compound,Potency,"activity change, positive = activation"
CC(OC(=O)CCc1nc2ccccc2c(=O)[nH]1)C(=O)c1ccc(C(C)(C)C)cc1 (stereo not given),"inconclusive: 70.8 µM [activator, single point]",
CCc1ccc(C(=O)/C=C/c2cnn(C)c2C)s1,"inconclusive: 50.1 µM [activator, partial curve, poor fit]",
Cn1c(=O)n(CC(=O)NCc2cccnc2)c2ccccc21,,inactive: 3.88%
O=C(OCc1nc2ccccc2s1)C1CCN(C2=NS(=O)(=O)c3ccccc32)CC1,"inconclusive: 10 µM [activator, partial curve, poor fit]",
S=C(NCCc1ccccc1)Nc1ccccc1Cl,,inactive: 10.3%
O=C(Nc1ccccc1Cl)C1C(c2ccccc2)C1(Cl)Cl (stereo not given),"inconclusive: 3.98 µM [activator, full curve, poor fit]",
Cc1ccc(NC(=S)N(N)CCO)cc1,"inconclusive: 25.1 µM [activator, partial curve, poor fit]",
COc1ccc(C(=O)c2c[nH]c(C(=O)NCC3CCCO3)c2)cc1 (stereo not given),"inconclusive: 70.8 µM [activator, partial curve, poor fit]",
COc1cccc(OC)c1OCc1cc(C2C3CCCC=C3C(C#N)=C(N)C2(C#N)C#N)c(C)cc1C (stereo not given),,inactive: 5.52%
O=C(NCc1nnc(SCc2ccccc2)n1-c1ccc(F)cc1)C12CC3CC(CC(C3)C1)C2,"inconclusive: 70.8 µM [activator, partial curve, poor fit]",
CC(C)NC(=O)c1ccc2c3n(nc2c1)-c1ccc(Cl)cc1CO3,"inconclusive: 2.51 µM [activator, full curve, poor fit]",
Cc1ccc(C(=O)c2ccccc2C(=O)OCC(=O)N2CCCC2)cc1,"inconclusive: 39.8 µM [activator, partial curve]",
CCN(CC)S(=O)(=O)c1cc(NC(=O)c2cccc(N3C(=O)CCC3=O)c2)ccc1Cl,,inactive: -1.11%
CCCCC(=O)Nc1ccccc1C(=O)OCC(=O)c1ccc2c(c1)OCCO2,active: 44.7 µM,
CCOC(=O)N/N=C\C=C\c1ccco1,"inconclusive: 10 µM [activator, partial curve, poor fit]",
O=C1/C(=C/c2ccccc2)CCC1C1CCCC1 (stereo not given),"inconclusive: 10 µM [activator, full curve]",
O=C(COC(=O)C1CCN(c2ccc(C(F)(F)F)cn2)CC1)Nc1ncc(Cl)cc1Cl,,inactive: -11.1%
Cc1cc(NC(=O)c2cc3ccccc3o2)cc(C)c1OCC(=O)N1CCOCC1,"inconclusive: 15.8 µM [activator, single point]",
O=C(Nc1cccc(N=Cc2cc(Cl)cc(Br)c2O)c1)c1ccco1,"inconclusive: 50.1 µM [activator, partial curve, poor fit]",
CN(C)c1ccc(/C=N/N=C/c2ccccc2O)cc1,"inconclusive: 2.82 µM [activator, partial curve, poor fit]",
O=C(OCC(=O)N1CCCCCC1)c1cnc(Cl)c(Cl)c1,"inconclusive: 70.8 µM [activator, single point]",
CNc1ccc(/C=C/C(=O)c2ccc(C)cc2)cc1[N+](=O)[O-],"inconclusive: 15.8 µM [activator, full curve, poor fit]",
CC(C)c1ccc(N=C2N=C(N)c3ccccc32)cc1,"inconclusive: 12.6 µM [activator, full curve, poor fit]",
COc1cc(/C=N/NC(=S)NC2CC3C=CC2C3)cc(OC)c1OC (stereo not given),,inactive: -4.24%

Compound,Potency,"activity change, positive = activation"
Cc1ccc2oc(Nc3nc(C)cc(C)n3)nc2c1,"inconclusive: 2.82 µM [activator, full curve, poor fit]",
O=C(COc1cccc2ccccc12)NNC(=O)Nc1ccccc1,,inactive: 1.33%
S=C(N/N=C1\CCc2ccccc21)NC1CCCCC1,"inconclusive: 35.5 µM [activator, partial curve, poor fit]",
O=S(=O)(Nc1ccc(N2CCCCC2)cc1)c1ccccc1,"inconclusive: 31.6 µM [activator, full curve]",
O=C(NNc1cccc(Cl)c1)c1cccnc1Oc1ccccc1,,inactive: -3.58%
CCOC(=O)C1=C(NC(=O)c2ccc(Br)o2)Nc2ccccc2N=C1,,inactive: -12%
Cc1cccc(NC(=S)NC2CC3CCCC(C2)N3Cc2cccs2)c1 (stereo not given),,inactive: 0.564%
Oc1ccc(N=Nc2ccccc2C(F)(F)F)c2cccnc12,,inactive: 24.2%
C=CCOc1ccccc1/C=N/NC(=O)Cc1ccccc1,"inconclusive: 70.8 µM [activator, single point]",
COc1ccc(S(=O)(=O)N2CCOCC2)cc1NC(=O)CN(C)Cc1c(F)cccc1Cl,,inactive: -4.93%
O=C(C1CCCN(Cc2ccccc2[N+](=O)[O-])C1)N1CCCC1 (stereo not given),,inactive: 0.667%
CCn1c(NCc2ccc(N(C)C)cc2)nc2ccccc21,"inconclusive: 11.2 µM [activator, partial curve, poor fit]",
O=C(c1nc2ccccc2[nH]1)c1ccccc1[N+](=O)[O-],"inconclusive: 10 µM [activator, full curve, poor fit]",
O=C(Nc1ccccc1)c1nc[nH]c1C(=O)NCc1ccccc1,,inactive: -2.07%
CN(C)c1ccc(C(=O)OCc2ccccc2)cc1,"inconclusive: 15.8 µM [activator, single point]",
CN1CCCC(OC(=O)c2ccccc2Br)C1 (stereo not given),"inconclusive: 50.1 µM [activator, partial curve, poor fit]",
O=C1S/C(=C\C=C\c2ccco2)C(=O)N1c1ccc(O)cc1,"inconclusive: 11.2 µM [activator, partial curve, poor fit]",
O=C(Nc1ccc2oc(=O)ccc2c1)c1ccc(-c2cccc(Cl)c2)o1,,inactive: -5.12%
N#C/C(=N\Nc1ccc(Cl)c(Cl)c1)C(=O)C1CC1,"inconclusive: 7.94 µM [activator, full curve, poor fit]",
Cc1cc(C(=O)NC2CCCCC2)c(C)n1-c1ccc(F)cc1,"inconclusive: 10 µM [activator, full curve, poor fit]",
O=C(NNC(=O)c1cc(Cl)ccc1O)c1cccs1,"inconclusive: 56.2 µM [activator, partial curve, poor fit]",
CCN=C1S/C(=C\c2sccc2C)C(=O)N1CC,"inconclusive: 8.91 µM [activator, full curve, poor fit]",
